Experimental data: PubChem BioAssay (NCI)
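Protocol summary: plate cells (96-well), add compound at 5 concentrations, incubate 48 h, interpolate endpoints linearly. The concentration for 50% growth inhibition is given as GI50. Definition used: TGI = concentration required for complete inhibition of growth.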

System: NCI-H322M lung
Experiment: NCI tumour cell line growth inhibition, 48 h

SMILES	GI50 [µM]	TGI [µM]
Cn1cc(-c2cc(N)n3nc(-c4cn(C)c5ncccc45)cc3n2)c2cccnc21	14.4	27.5
Cc1cc2c(cc1Cl)C(=O)/C(=C/c1ccccc1)O2	60.6	> 100
